From paper PMC4336329 (PLoS ONE, 2015) come the findings set out here.

SMILES strings stand for the structures. About 2,200 (0.71%) of roughly 310,000 compounds showed an effect of 50% or more. The effect is printed as a negative number. This is one part of the list.

In the experiment the target is human ether-à-go-go-related gene (hERG) potassium channel (human, UniProt Q12809). The experiment in a line: primary screen, population patch clamp on CHO cells stably expressing hERG.
human ether-à-go-go-related gene (hERG) potassium channel, sequence (Q12809 whole entry, looked up): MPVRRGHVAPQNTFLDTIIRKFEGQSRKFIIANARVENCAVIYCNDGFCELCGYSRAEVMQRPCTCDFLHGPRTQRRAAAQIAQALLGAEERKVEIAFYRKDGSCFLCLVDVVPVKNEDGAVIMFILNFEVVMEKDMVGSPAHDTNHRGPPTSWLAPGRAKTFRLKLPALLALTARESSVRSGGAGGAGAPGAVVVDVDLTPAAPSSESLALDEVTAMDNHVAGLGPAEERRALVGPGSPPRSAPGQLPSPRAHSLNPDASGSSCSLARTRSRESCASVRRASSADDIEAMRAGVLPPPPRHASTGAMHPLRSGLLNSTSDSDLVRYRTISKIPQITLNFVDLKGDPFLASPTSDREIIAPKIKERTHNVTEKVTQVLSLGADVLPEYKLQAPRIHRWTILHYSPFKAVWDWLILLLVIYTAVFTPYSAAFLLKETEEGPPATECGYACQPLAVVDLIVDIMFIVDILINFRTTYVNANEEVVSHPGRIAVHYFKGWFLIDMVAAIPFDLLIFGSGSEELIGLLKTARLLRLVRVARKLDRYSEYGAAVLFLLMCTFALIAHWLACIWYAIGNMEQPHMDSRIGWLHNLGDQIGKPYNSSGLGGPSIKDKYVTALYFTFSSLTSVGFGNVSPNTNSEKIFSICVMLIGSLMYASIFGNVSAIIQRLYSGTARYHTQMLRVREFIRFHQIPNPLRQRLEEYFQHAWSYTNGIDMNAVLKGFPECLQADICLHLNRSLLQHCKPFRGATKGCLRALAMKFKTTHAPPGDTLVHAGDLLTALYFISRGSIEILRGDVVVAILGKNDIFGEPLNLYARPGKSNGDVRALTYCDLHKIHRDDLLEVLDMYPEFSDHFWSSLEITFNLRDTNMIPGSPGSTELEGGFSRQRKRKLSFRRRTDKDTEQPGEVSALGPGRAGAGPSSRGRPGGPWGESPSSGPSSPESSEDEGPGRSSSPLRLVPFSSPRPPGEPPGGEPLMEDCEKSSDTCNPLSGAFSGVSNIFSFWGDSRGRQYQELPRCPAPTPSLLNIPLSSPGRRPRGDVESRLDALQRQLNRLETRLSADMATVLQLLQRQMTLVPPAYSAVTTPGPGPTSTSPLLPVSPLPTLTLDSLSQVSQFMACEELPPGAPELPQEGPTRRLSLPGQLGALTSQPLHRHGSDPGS
Regarding `O=C(NC(=S)Nc1ccc(Br)cn1)c1cccnc1`, the “hERG current change (%, negative = inhibition) at 1uM” value was found to be 17.1%.
Then `Cl.O=C1CC[C@@]2(O)[C@H]3Cc4ccc(O)c5c4[C@@]2(CCN3CC2CC2)[C@H]1O5`, with 12.3%; and `Cc1ccccc1NC(=O)C1CCN(S(=O)(=O)c2cccc3nonc23)CC1`, with 13.2%; and `COC(=O)c1ccccc1NC(=O)N1CCN(C(=O)c2ccco2)CC1`, with -2.84%.
Then `c1ccc(OCCOc2ncnc3sccc23)cc1`, with 9.61%; and `CCCc1cc(NCc2ccccn2)n2nc(C)c(-c3ccccc3)c2n1`, with 10.1%; and `COc1ccc(NC(=O)NC(C)(C(F)(F)F)C(F)(F)F)cc1`, with 14.6%.
Then `CC(C)C(=O)Nc1ncc(C(F)(F)F)cc1Cl`, with 17.7%; and `CCN(CC(=O)Nc1ccc(OC)cc1)C(=O)c1ccc2c(c1)NC(=O)C(C)S2` (centres unmarked), with 7.69%.
In the case of `CCOC(=O)Cn1c(CN(Cc2ccccc2)Cc2ccccc2)nc2c1c(=O)n(C)c(=O)n2C`, the “hERG current change (%, negative = inhibition) at 1uM” value came out at 0.492%.
Then `O=C(CSc1n[nH]c(-c2cccs2)n1)N1CCN(S(=O)(=O)c2ccccc2)CC1`, with 18.2%; and `COCCCn1c(SCC(=O)N2CCc3ccccc32)nnc1-c1ccoc1C`, with -0.137%.
Then `COC(=O)c1cc(F)c(-n2cncn2)c(F)c1`, with 0.768%; and `CSc1ccc(Cn2nnc(C(=O)NCc3ccccc3)c2N)cc1`, with 0.777%.
For the molecule `CSc1ccccc1NC(=O)CN(C)C(=O)c1cccc(S(=O)(=O)N(C)C)c1`, the “hERG current change (%, negative = inhibition) at 1uM” value is listed as 11.2%.
Then `CCOC(=O)C(=CNCC(=O)OC)C(=O)OCC`, with 8.02%; and `O=C(CNC(=O)c1cccc(Cl)c1)NCC(c1cccs1)N1CCOCC1` (centres unmarked), with 0.315%.
`COC(=O)[C@@]12CCCCN1[C@H](c1ccc(-c3cc(C(C)=O)cs3)cc1)[C@H]1C(=O)N(C)C(=O)[C@H]12.O=C(O)C(F)(F)F`: the “hERG current change (%, negative = inhibition) at 1uM” value worked out at 9.68%.
Then `CC(=O)N1CC=C2C(C#N)=C(N)C(C#N)(C#N)C(C)C2C1` (centres unmarked), with 14.8%.
Consider `O=C(/C=C/c1ccco1)Nc1ccc2c(c1)OCCO2`, for which the “hERG current change (%, negative = inhibition) at 1uM” value is given as 12.2%.
Consider `CCC(=O)NC(=S)Nc1ccc(NC(=O)COc2ccccc2)cc1`, for which the “hERG current change (%, negative = inhibition) at 1uM” value came out at 19.7%.
Then `O=C(O)Cc1ccc(Nc2cnn(C34CC5CC(CC(CC(=O)O)(C5)C3)C4)c(=O)c2Cl)cc1`, with 13.3%; and `Cc1nn(CCC#N)c(NC(=O)c2ccc(Cl)cc2Cl)c1P(=O)(Nc1ccc([N+](=O)[O-])cc1)N1CCOCC1` (centres unmarked), with -4.29%; and `C=CCn1c(=NC(=O)c2cccs2)sc2cc(NC(C)=O)ccc21`, with 15%.
Then `CN(CCNC(=O)CCNC(=O)Cn1ccc2ccccc2c1=O)Cc1ccccc1`, with 9.43%; and `CS(=O)(=O)NC1c2cccc3cccc(c23)C1Sc1nncn1/N=C/c1ccco1` (centres unmarked), with -3.39%; and `COc1ccc(CCNC(=O)Cn2cc(C(F)(F)F)cc(Cl)c2=O)cc1OC`, with -0.426%.
Turning to `COC(=O)c1c(NC(=O)CC2Nc3cc(C)c(C)cc3NC2=O)sc(C)c1C` (centres unmarked), the “hERG current change (%, negative = inhibition) at 1uM” value is -1.33%.
Then `CCOC(=O)/C(C#N)=C/c1c(N2CCN(c3ccc(OC)cc3)CC2)nc2c(C)cccn2c1=O`, with 11.3%; and `Cc1ccc(NC(=O)C(C)SCc2ccccc2)cc1` (centres unmarked), with 14.3%; and `O=[N+]([O-])c1ccccc1OCCCCN1CCCCC1`, with -16.3%.
Then `O=c1c2c3c(sc2ncn1/N=C/c1ccccc1)CCCC3`, with 6.71%; and `COCc1cc(CN2CCN(CCc3ccccc3)C(CCO)C2)ccc1OC` (centres unmarked), with -32.3%.
Then `CCOC(=O)C1=C(C)NC2=C(C1c1ccc([N+](=O)[O-])cc1)S(=O)(=O)c1ccccc12` (centres unmarked), with 4.23%; and `Cc1nc(SCC(=O)NCc2cccs2)nc(C)c1C`, with 6.32%; and `CC(C)(C)c1ccc(OCC(O)CN(CCO)CC(O)Cn2ccc3ccccc32)cc1` (centres unmarked), with 7.37%.
On to `Cn1nnnc1SCC(=O)Nc1cccc([N+](=O)[O-])c1`, for which the “hERG current change (%, negative = inhibition) at 1uM” value turned out to be 12.8%.
Then `CCOC(=O)c1cc(C(=O)Nc2ccc(C)c(F)c2)nn1C`, with 7.7%; and `Cc1n[nH]c(=S)n1Cc1ccccc1`, with 11.8%; and `COc1ccccc1-c1ccc(/C=C2/C=C(CC(C)C)OC2=O)o1`, with 13.9%.
`NCCN=C1NS(=O)(=O)c2ccccc21`: the “hERG current change (%, negative = inhibition) at 1uM” value was determined as 13.6%.
Consider `COc1ccc(Cl)cc1NC(=S)NC(=O)c1ccco1`, for which the “hERG current change (%, negative = inhibition) at 1uM” value is given as -5.93%.
Then `COc1ccc(-c2cc(C(=O)N3CCN(S(=O)(=O)c4ccc(C)cc4)CC3)[nH]n2)cc1`, with 2.03%.
Then `Nc1nonc1-c1nc2ccccc2n1CC(=O)N1CCN(c2ccc(F)cc2)CC1`, with -0.994%.
